Data taken from PubChem BioAssay AID360 (National Center for Advancing Translational Sciences (NCATS), 2006).
The campaign covered roughly 48,000 compounds. About 550 (1.1%) were called active. About 4% were inconclusive and are not listed. Cut-off read from the data, not from the text of the source: active = potency below about 15 µM; inconclusive = mostly about 16 µM to 33 µM; inactive = weaker than that. The list shows a part of the results.

molecular target: Lysosomal acid glucosylceramidase (Homo sapiens) (UniProt P04062); experiment: Glucocerebrosidase; settings: purified enzyme, resorufin glucoside fluorescence (screen aimed at inhibitors), 20 min; series mostly up to 77 µM;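 note: the screen sought inhibitors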
How it was run: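 Compounds titrated against 0.2 nM normal enzyme, 30 uM resorufin beta-D-glucopyranoside substrate, citrate/phosphate buffer with taurocholate and tween-20, pH 5.9. Reaction ran 20 min at room temperature; fluorescence (Ex 548/Em 600) gave AC50.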
Potency is the fitted concentration of half-maximal effect.

Sequence of UniProt P04062 (P04062 whole entry, looked up): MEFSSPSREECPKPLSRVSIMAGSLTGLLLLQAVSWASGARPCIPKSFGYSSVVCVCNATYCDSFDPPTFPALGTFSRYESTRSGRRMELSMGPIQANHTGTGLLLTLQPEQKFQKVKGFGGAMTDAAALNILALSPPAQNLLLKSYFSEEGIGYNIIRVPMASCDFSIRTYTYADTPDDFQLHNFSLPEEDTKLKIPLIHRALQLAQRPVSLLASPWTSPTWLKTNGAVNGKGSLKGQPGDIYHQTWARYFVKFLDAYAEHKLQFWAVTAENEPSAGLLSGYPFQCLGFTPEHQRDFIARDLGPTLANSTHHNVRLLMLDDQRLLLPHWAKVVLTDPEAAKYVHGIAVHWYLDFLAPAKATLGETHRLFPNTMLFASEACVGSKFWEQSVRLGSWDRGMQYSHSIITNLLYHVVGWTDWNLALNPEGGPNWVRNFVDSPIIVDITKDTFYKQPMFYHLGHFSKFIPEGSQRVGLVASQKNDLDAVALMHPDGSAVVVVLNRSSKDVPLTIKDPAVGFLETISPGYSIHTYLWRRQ

Potency, inactive:
CCOc1cc(C2NC(=O)NC(C)=C2C(=O)OCc2ccccc2)ccc1O (centres undefined) > 76.9 µM
CC1CCc2cc(F)ccc2N1C(=O)CN1C(=O)c2ccccc2C1=O (centres undefined) > 76.9 µM
CC(C(=O)Nc1cc(C(F)(F)F)ccc1N1CCOCC1)N1C(=O)C2CC=CCC2C1=O (centres undefined) > 76.9 µM
O=C(Cn1c(-c2ccccc2)noc1=O)NCc1ccccc1 > 76.9 µM
O=C(c1cc(S(=O)(=O)N2CCOCC2)c(Cl)cc1Cl)N1CCCCC1 > 76.9 µM
Cn1nnnc1CCOCCc1nnnn1C > 76.9 µM
CC(=O)NC(Cc1ccccc1)C(=O)NC1CCN(C(=O)c2cnccn2)CC1 (centres undefined) > 76.9 µM
COc1ccc2[nH]c3c(NCCN(C(C)C)C(C)C)ncnc3c2c1 > 76.9 µM
COc1ccc(S(=O)(=O)Nc2cc(C)cc(C)n2)c2ccccc12 > 76.9 µM
COc1ccc(-c2cc(C(N)=O)nc(N3CCCCCC3)n2)cc1 > 76.9 µM
COC(=O)CSc1nnc(-c2cccc(NC(=O)c3ccc(C)cc3)c2)n1C > 76.9 µM
Cc1sc2ncnc(SCC#N)c2c1C > 76.9 µM
CCCC(=O)N1c2ccccc2[C@@H](N(C(C)=O)c2ccccc2)C[C@H]1C > 76.9 µM
CCOC(=O)N1CCN(c2c(-c3ccc(C)c(C)c3)c(=O)c2=O)CC1 > 76.9 µM
Cc1csc(NC(=O)CCN2C(=O)c3ccccc3S2(=O)=O)n1 > 76.9 µM
O=c1c(=O)n(O)c2ccccc2n1O > 76.9 µM
COc1ccc(NC(=O)CSc2nnc(-c3ccccc3)n2Cc2ccco2)c(OC)c1 > 76.9 µM
O=C(c1cccn2c(=O)c3ccccc3nc12)N1CCN(c2ccccn2)CC1 > 76.9 µM
COC(=O)CN(c1ccc(C)cc1)S(=O)(=O)c1ccc2c(c1)n(C)c(=O)c(=O)n2C > 76.9 µM
CCCC(=O)NC1C2CC3CC(C2)CC1C3 (centres undefined) > 76.9 µM
COc1ccccc1CN1C(=O)C2CC=CCC2C1=O (centres undefined) > 76.9 µM
CCc1nnc(NC(=O)CSc2nnc(-c3ccoc3C)n2CC(C)C)s1 > 76.9 µM
CN(C(=O)c1ccncc1)C1CC(C)(C)N(O)C(C)(C)C1 > 76.9 µM
O=C(Nc1ccccc1F)c1cc(S(=O)(=O)N2CCCCC2)cs1 > 76.9 µM
Cc1cccc(C)c1N(CC(=O)N1CCN(C)CC1)S(C)(=O)=O > 76.9 µM
O=C(Cn1c(CO)nc2ccccc21)Nc1cc(C(F)(F)F)ccc1N1CCOCC1 > 76.9 µM
Cc1ccc(-n2ncc3c(=O)n(Cc4ccccn4)cnc32)cc1C > 76.9 µM
Cc1ccc2cccc(OC(=O)c3ccc4c(c3)OCCO4)c2n1 > 76.9 µM
CN(C)c1ccc(C(c2nnnn2C2CCCCC2)N2CCN(C(=O)c3ccco3)CC2)cc1 (centres undefined) > 76.9 µM
COc1ccc(CCNC(=O)COC(=O)c2cnccn2)cc1 > 76.9 µM
CCN(CC)c1cc(Oc2ccccc2)ncn1 > 76.9 µM
CC(C)CC(NC(=O)C1CCCCC1)C(=O)NCc1ccccn1 (centres undefined) > 76.9 µM
CC1S/C(=C(\C#N)C(N)=O)N(c2ccc(F)cc2)C1=O (centres undefined) > 76.9 µM
c1ccc(C2(c3ccccc3)OCC(Cn3cncn3)O2)cc1 (centres undefined) > 76.9 µM
O=c1[nH]c(CN2CCN(Cc3ccc4c(c3)OCO4)CC2)nc2sc3c(c12)CCC3 > 76.9 µM
Cn1c(=O)c2c(-c3ccccc3)n(-n3cnnc3)cc2n(C)c1=O > 76.9 µM
CCC(=O)Nc1c(C(=O)N2CCCCCC2)cnn1-c1ccc(C)c(C)c1 > 76.9 µM
O=S(=O)(c1ccc(SCCO)nc1)N1CCCC1 > 76.9 µM
Cn1c(=O)oc2cc(S(=O)(=O)NCCN3CCCCCC3)ccc21 > 76.9 µM
O=C(Nc1ccccc1)c1ccc(S(=O)(=O)N2CCCC2)cc1 > 76.9 µM
O=C(NCCc1ccccc1)c1noc2c1CCCCC2 > 76.9 µM
C=CCn1c(=O)/c(=C/c2ccc(C)o2)s/c1=C(/C#N)C(=O)c1ccccc1 > 15.4 µM
CCOC(=O)/C=C1\NC(=O)CS1 > 76.9 µM
Cc1nc(N)[nH]c(=O)c1CCC(=O)OCC(C)C > 76.9 µM
COc1ccc(C(=O)Cn2nnc(-c3cccs3)n2)cc1 > 76.9 µM
Cc1cc(C(=O)Nc2cc(C)n(Cc3ccc(Cl)cc3)n2)no1 > 76.9 µM
O=C(CN1C(=O)c2ccccc2C1=O)N1CCN(c2ccccn2)CC1 > 76.9 µM
COCCn1c(C23CC4CC(CC(C4)C2)C3)n[nH]c1=S > 76.9 µM
c1ccc(Nc2nc(-c3cccs3)cs2)nc1 > 76.9 µM
CC(=O)N(c1ccc2oc(=O)sc2c1)S(=O)(=O)c1ccccc1 > 76.9 µM
CCS(=O)(=O)c1ccc2oc(Nc3ccccc3C)nc2c1 > 76.9 µM
Cn1cccc1P(=O)(c1cccn1C)c1cccn1C > 76.9 µM
Cc1ccc2c(c1)C(C)(C)[C@]1(C)NC(=O)CCN21 > 76.9 µM
Cc1nc2ncnn2c(C)c1CCC(=O)NC(C)CCc1ccco1 (centres undefined) > 76.9 µM
Cc1ccc(OCC(=O)N2CCN(C(=O)c3cccs3)CC2)cc1 > 76.9 µM
CCCn1c(SCC(=O)Nc2ccccc2N2CCCCC2)nc2c1c(=O)n(C)c(=O)n2C > 76.9 µM
c1ccc2c(c1)C(=NCC1CCCO1)NC2=NCC1CCCO1 (centres undefined) > 76.9 µM
CCN(CC)C(=O)N1c2ccccc2CC(N(CC)CC)c2ccccc21 (centres undefined) > 76.9 µM
COc1ccc(Cc2nc(-c3ccc(NC(=O)c4cccnc4)cc3)no2)cc1 > 76.9 µM
